Results reported in publication PMC4336329 (PLoS ONE, 2015).
Out of some 310,000 compounds screened, about 14,000 (4.5%) showed an effect of 50% or more. Effects have a minus sign here. The list shows a part of the results.

Each compound was assayed against human ether-à-go-go-related gene (hERG) potassium channel (human, UniProt Q12809) (assay: primary screen, population patch clamp on CHO cells stably expressing hERG).
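Note: peak tail current of the secondary pulse compared with the same well before compound.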

Chain of human ether-à-go-go-related gene (hERG) potassium channel (Q12809 whole entry, looked up): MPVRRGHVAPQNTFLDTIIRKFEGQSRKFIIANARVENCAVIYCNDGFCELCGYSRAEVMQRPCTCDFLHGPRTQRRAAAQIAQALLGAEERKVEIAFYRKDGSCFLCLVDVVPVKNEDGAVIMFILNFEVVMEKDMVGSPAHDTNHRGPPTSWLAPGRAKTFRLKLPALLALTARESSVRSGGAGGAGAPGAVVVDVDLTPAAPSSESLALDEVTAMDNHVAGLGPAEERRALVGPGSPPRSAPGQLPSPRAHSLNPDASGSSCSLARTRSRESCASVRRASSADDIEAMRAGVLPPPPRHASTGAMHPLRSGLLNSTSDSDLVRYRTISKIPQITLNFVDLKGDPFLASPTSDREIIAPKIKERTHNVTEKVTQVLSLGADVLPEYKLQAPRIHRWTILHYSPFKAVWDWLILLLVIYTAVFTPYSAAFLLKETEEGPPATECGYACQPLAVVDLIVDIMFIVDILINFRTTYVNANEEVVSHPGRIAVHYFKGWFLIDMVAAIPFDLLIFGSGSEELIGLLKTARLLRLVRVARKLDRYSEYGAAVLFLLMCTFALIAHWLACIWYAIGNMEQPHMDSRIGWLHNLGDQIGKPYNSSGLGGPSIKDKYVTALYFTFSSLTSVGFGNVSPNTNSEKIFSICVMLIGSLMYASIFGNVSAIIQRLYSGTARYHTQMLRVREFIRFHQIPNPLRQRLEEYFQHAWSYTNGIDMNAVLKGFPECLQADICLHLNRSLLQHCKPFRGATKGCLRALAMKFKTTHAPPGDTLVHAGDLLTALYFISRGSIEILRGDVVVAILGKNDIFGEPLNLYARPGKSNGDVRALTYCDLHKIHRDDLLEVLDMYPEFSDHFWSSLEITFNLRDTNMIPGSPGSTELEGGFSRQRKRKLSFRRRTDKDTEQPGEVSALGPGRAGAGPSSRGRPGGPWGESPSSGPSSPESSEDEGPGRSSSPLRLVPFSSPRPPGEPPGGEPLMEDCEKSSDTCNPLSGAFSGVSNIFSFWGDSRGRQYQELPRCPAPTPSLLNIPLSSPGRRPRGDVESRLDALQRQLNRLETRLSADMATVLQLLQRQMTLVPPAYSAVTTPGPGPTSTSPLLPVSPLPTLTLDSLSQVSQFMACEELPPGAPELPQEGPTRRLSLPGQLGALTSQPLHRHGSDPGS

Row | Structure (SMILES) | hERG current change (%, negative = inhibition) at 10uM
1 | Cc1ccc(CNC(=O)C(=O)NCC2OCCN2S(=O)(=O)c2ccc(C)cc2)cc1 (stereo not shown) | 22.1%
2 | O=C(Nc1ccccn1)c1ccc(Cl)c(S(=O)(=O)N2CCc3ccccc32)c1 | -10%
3 | Cn1c(CNc2ccccc2O)nc2ccccc21 | -2.8%
4 | Cc1ccc(Cn2c(SCC(=O)N(C)C3CCS(=O)(=O)C3)nc3ccccc3c2=O)cc1 (stereo not shown) | -60.8%
5 | CCn1c(SCC(=O)Nc2ccc(F)cc2)nnc1C1CC1 | -0.652%
6 | O=C(Nc1cccc(-c2cnc3ccccc3n2)c1)c1cccc(NC(=O)c2ccco2)c1 | 7.85%
7 | O=C(CCCN1C(=O)/C(=C/c2cccs2)SC1=S)Nc1ccc(O)cc1 | 14.5%
8 | CCn1c(SCC(=O)Nc2ncc(C(F)(F)F)cc2Cl)nnc1-c1ccccc1 | -12.6%
9 | CC(=O)c1cccc(NC(=O)CCCSc2ccccc2)c1 | -17%
10 | CC(=O)N1CCN(c2ccc([N+](=O)[O-])c(NCC3CCCO3)c2)CC1 (stereo not shown) | -18.3%
11 | Cc1ccc(OCc2nnc(SCC(=O)NCc3ccco3)n2C)cc1 | -21.5%
12 | Nc1cccn2c(-c3ccc(Cl)cc3)cnc12 | 7.91%
13 | CCOC(=O)c1ccc(N2C(=O)CC(SCC(N)C(=O)OCC)C2=O)cc1 (stereo not shown) | -13.4%
14 | C=CCn1c(COc2ccccc2F)nnc1SCC(=O)NC(=O)NCc1ccco1 | -0.537%
15 | CC1(C)CC2CC(C)(CN2C(=O)Cc2ccccc2)C1 (stereo not shown) | 4.36%
16 | CCOc1ccc(C(=O)N2CCN(c3ccccc3)CC2)cc1 | -36.3%
17 | Cc1ccc(-c2nnn(CC(=O)N(CC(=O)NC3CCCCC3)c3ccc(F)c(Cl)c3)n2)o1 | 10.2%
18 | COc1ccc(OC)c(NC(=O)CCN2CCCCC2)c1 | 7.47%
19 | O=[N+]([O-])c1ccccc1S(=O)(=O)N1CCN(C2CCCC2)CC1 | 0.58%
20 | COc1ccc(C(=O)CSc2nnc(-c3ccccc3)o2)cc1 | 6.76%
21 | COc1ccc(-c2cc(C(F)(F)F)c(C#N)c(SCC(=O)Nc3nc(C)co3)n2)cc1 | 1.46%
22 | COc1cccc(-c2nc(CCl)cs2)c1.Cl | 0.958%
23 | CC1(C)CC(=O)C(C=NCCN2CCN(C(=S)Nc3cccc(Cl)c3)CC2)=C(O)C1 | -66.3%

Row | Structure (SMILES) | hERG current change (%, negative = inhibition) at 10uM
24 | CC(C)(CO)NCC#Cc1ccccc1.Cl | 10%
25 | COc1cc(NC2CCCCC2O)c2nc(-c3ccc(Cl)cc3)ccc2c1 (stereo not shown) | 5.62%
26 | Cc1c(CN(C)C(=O)c2nn(C)cc2[N+](=O)[O-])cnn1C | 8.63%
27 | Oc1ccc(C2Nc3cccc4cccc(c34)N2)cc1 | 12.8%
28 | C=C(C)CN1C(=O)C2(OCCO2)c2ccccc21 | 17.7%
29 | COC(=O)C1=C(C)NC(C)=C(C(=O)OC)C1C1CC=CCC1 (stereo not shown) | 10.4%
30 | CCc1nnc(NC(=O)CSc2nc(C)cc(C)c2C#N)s1 | 9.06%
31 | COc1ccccc1Oc1nc([N+](=O)[O-])nn1CC(N)=O | 35.5%
32 | Cc1ccccc1N=C1NC(=O)/C(=C/c2cccnc2)S1 | 4.08%
33 | CC(C)C(c1nnnn1C1CCCC1)N1CCCc2ccccc21 (stereo not shown) | -9.14%
34 | Cc1ccc(S(=O)(=O)N2CCN(CC(=O)N/N=C\c3ccc(O)c(O)c3)CC2)cc1 | -8.76%
35 | CCOC(=O)N1CCN(C(=O)C(CC)n2nc(C)c3sc4ccccc4c3c2=O)CC1 (stereo not shown) | -6.79%
36 | O=C(NCCNC(=O)c1ccccc1Br)c1ccccc1Br | 8.51%
37 | CCCNC(=O)C(=O)NCCC1=CCCCC1 | 6.61%
38 | O=C(Nc1ccc([N+](=O)[O-])cc1)N1CCc2ccccc2C1 | -12.5%
39 | O=C(Cc1cccs1)N1CCN(c2ccc(F)cc2)CC1 | -4.82%
40 | Cc1cc(Sc2ccc([N+](=O)[O-])cn2)ccc1Br | -2.43%
41 | COc1ccc(C(=O)Nc2ccc(NC(=O)c3cccc(F)c3)cn2)cc1 | 8.06%
42 | Cc1ccc(-n2nc3c(c2NC(=O)c2c(-c4ccccc4Cl)noc2C)CS(=O)(=O)C3)c(C)c1 | -10.5%
43 | CCCCN(C(C)=O)C1CC(=O)N(c2ccc(OCCC)cc2)C1=O (stereo not shown) | 0.99%
44 | CCC(=O)c1ccc(OCc2ccccc2)c(OC)c1 | 16.7%
45 | CCc1ccc2nc(SCC(=O)NCC3CCCO3)c(C#N)cc2c1 (stereo not shown) | 6.86%
46 | Cc1ccc(S(=O)(=O)N2CCN(C(=O)CC3CCCC3)CC2)cc1 | -8.41%

Row | Structure (SMILES) | hERG current change (%, negative = inhibition) at 10uM
47 | COc1ccc2[nH]c(C)c(CCNC(=S)Nc3ccccc3C)c2c1 | 12.9%
48 | CCOc1cc(C)c(C(C)C)cc1S(=O)(=O)N1CCOCC1 | -0.0443%
49 | CCCNC(=O)c1ccc(N2CCC3(CC2)CC(c2cccc(Br)c2)=NO3)c(NC(=O)c2cccc(C)c2)c1 | 11.7%
50 | CC(C)(C)c1ccc(C(=O)N/C(=C\c2ccco2)C(=O)Nc2ccccc2C(=O)O)cc1 | 24%
51 | Clc1cccc(Oc2ncc(CN3CCOCC3)s2)c1 | 0.97%
52 | Cc1ccc(NC(=O)Cn2cnc3cc([N+](=O)[O-])ccc3c2=O)c(Cl)c1 | 16.4%
53 | Cc1ccc(C(=O)c2c(C)oc3c2C(=O)C(=O)c2ccccc2-3)cc1 | -2.38%
54 | CC(C)C[C@H](NC(=O)Nc1ccc(Oc2ccccc2)cc1)C(=O)O | 9.65%
55 | CC(=O)c1cccc(NC(=O)C(C)OC(=O)CNC(=O)c2ccc(C)s2)c1 (stereo not shown) | 16.7%
56 | CCc1ccc(C(=O)COC(=O)C(Cc2ccccc2)NC(=O)c2ccc(Cl)cc2)cc1 (stereo not shown) | 7.75%
57 | C=CCn1c(-c2sc3nc(C)cc(C)c3c2N)n[nH]c1=S | 18%
58 | O=C(NCC(c1cccs1)N1CCOCC1)c1cc(-c2ccccn2)nc2ccccc12 (stereo not shown) | -23%
59 | O=C(O)CC1SC(=O)N(CC(=O)c2ccccc2)C1=O (stereo not shown) | 5.23%
60 | CCn1c(=O)cc(OCC(=O)NCc2ccco2)c2ccccc21 | 0.766%
61 | C/C(=N\NC(=O)CNC(=O)C1COc2ccccc2O1)c1ccc(Cl)cc1 (stereo not shown) | -17.6%
62 | COC(=O)c1ccc(S(=O)(=O)NCCc2ccccc2OC)n1C | -7.34%
63 | Br.N=C1c2ccccc2CN1c1ccc(N2CCOCC2)c(S(=O)(=O)Nc2ccc(Cl)cc2)c1 | -81%
64 | CC(=O)c1cccc(NC(=O)Oc2ccccc2)c1 | 11.6%
65 | COc1ccc(C(=O)Oc2ccc(/C=N/NC(=O)c3cccnc3)cc2OC)cc1 | 0.369%
66 | O=C(Cc1cccs1)NNC(=O)c1ccc(F)cc1 | 3.91%
67 | COc1ccc(Cl)cc1C(=O)N1CCN(Cc2ccc3c(c2)OCO3)CC1 | -20.5%
68 | CCOC(=O)CC(=O)CSc1nc2cc(C)ccc2cc1C | 18.8%
69 | ClCc1ncc(-c2ccc(Cl)cc2)o1 | 33.5%

Row | Structure (SMILES) | hERG current change (%, negative = inhibition) at 10uM
70 | CC(=O)Nc1ccc(NC(=O)CSc2ncc(C(=O)Nc3ccccc3)c(=O)n2C)cc1 | 0.205%
71 | CCCC(=O)Nc1c(-c2cccs2)c(=O)c2ccccc2n1C | -13.6%
72 | Cc1ccc(CN(C(=O)c2cc(=O)c3cc(C)cc(C)c3o2)C2CCS(=O)(=O)C2)cc1 (stereo not shown) | -32.1%
73 | Cc1ccc(-n2nc3c(c2NC(=O)c2ccc4c(c2)OCO4)CSC3)cc1 | 5.99%
74 | CCOC(=O)c1cc(-c2ccc(C#N)cc2)nc2c1c(C)nn2CCC#N | -37.7%
75 | CC(C)CCN1CCN=C1Nc1ccccc1 | 12.1%
76 | Cc1cc(C)n(CC(=O)NN)n1 | 42.8%
77 | Oc1ccc(C(=C(Cl)Cl)c2ccc(O)cc2)cc1 | 12.1%
78 | COC(=O)Nc1ccccc1C(=O)N1CCCCC1 | 4.62%
79 | O=C(O)CCC(=O)N1N=C(c2ccco2)CC1c1ccco1 (stereo not shown) | -78.1%
80 | COc1ccc(NC(=O)CSc2nnc(Cc3ccccc3)c(=O)n2N)c(OC)c1 | -18.1%
81 | COc1cccc(NC(=O)CSc2nnc(CNC(=O)c3ccccc3F)o2)c1 | -28.5%
82 | CCS(=O)(=O)NCc1cn2c(C)csc2n1 | -7.77%
83 | CC(C)(C)OC(=O)NCCOC(=O)c1[nH]cnc1C(=O)NCc1ccccc1 | -18.3%
84 | CC1CCN(Cc2nc(-c3ccccc3)no2)CC1.Cl | -0.43%
85 | Cn1nccc1C(=O)N1CCC2(CC1)OCCO2 | 11.5%
86 | Cc1ccc(NC(=O)NCCCN2CCCC2=O)c(C)c1 | -1.12%
87 | OC(CNCc1ccccc1)(c1ccc(F)cc1)c1ccc(F)cc1 | -38.1%
88 | COc1ccc(/C=N/NC(=O)c2cccnc2)cc1 | 10.8%
89 | COc1cccc2cc(C(C)OC(=O)Nc3ccc(C)cc3)oc12 (stereo not shown) | 8.64%
90 | CC(=O)N1CCN(c2ccc(NC(=O)c3ccc([N+](=O)[O-])cc3Cl)cc2)CC1 | -8.49%
91 | COCCCn1c(=O)c2sccc2n2c(CCCC(=O)NCc3cccc(OC)c3)nnc12 | -6.59%
